Results from article PMC4336329 (PLoS ONE, 2015).
The whole screen tested about 310,000 compounds, of which about 2,200 (0.71%) showed an effect of 50% or more. The effect is printed as a negative number. Some of the results follow.

The compounds below were run against human ether-à-go-go-related gene (hERG) potassium channel (human, UniProt Q12809) (assay: primary screen, population patch clamp on CHO cells stably expressing hERG).
human ether-à-go-go-related gene (hERG) potassium channel, sequence (Q12809 whole entry, looked up): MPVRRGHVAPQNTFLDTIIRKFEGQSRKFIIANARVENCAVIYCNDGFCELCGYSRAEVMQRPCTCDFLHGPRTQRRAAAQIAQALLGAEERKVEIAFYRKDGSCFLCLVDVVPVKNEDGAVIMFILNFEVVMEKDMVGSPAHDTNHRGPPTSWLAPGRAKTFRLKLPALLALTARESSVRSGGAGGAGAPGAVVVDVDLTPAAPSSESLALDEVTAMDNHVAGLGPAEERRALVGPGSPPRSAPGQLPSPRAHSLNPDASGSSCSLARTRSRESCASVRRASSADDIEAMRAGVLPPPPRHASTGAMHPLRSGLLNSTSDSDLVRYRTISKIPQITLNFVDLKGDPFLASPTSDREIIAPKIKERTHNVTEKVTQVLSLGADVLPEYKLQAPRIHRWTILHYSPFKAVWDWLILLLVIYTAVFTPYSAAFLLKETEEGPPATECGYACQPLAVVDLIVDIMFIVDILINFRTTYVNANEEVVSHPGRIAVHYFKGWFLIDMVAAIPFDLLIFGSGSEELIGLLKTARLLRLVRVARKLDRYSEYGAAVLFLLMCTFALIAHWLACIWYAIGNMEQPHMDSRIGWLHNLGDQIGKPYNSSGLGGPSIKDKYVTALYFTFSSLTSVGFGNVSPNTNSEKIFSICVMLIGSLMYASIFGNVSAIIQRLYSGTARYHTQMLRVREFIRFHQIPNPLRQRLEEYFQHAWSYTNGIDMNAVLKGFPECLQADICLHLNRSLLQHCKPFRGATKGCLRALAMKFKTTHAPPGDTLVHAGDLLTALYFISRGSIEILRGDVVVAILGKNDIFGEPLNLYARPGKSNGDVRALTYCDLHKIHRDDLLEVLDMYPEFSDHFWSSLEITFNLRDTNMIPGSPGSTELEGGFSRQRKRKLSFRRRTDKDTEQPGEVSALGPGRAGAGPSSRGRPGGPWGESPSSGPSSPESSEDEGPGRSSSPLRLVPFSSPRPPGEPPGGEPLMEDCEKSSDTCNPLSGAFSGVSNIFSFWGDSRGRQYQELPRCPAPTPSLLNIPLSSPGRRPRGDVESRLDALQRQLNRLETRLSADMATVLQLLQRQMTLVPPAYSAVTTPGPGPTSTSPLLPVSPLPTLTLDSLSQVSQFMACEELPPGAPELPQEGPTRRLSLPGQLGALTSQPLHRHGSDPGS

SMILES | hERG current change (%, negative = inhibition) at 1uM [%]
CCSc1nnc(NC(=O)CSc2nnc(CNC(=O)c3ccc(OC)c(OC)c3)o2)s1 | 3.76
CCOC(=O)c1ccccc1NC(=O)COC(=O)C(CCSC)NC(=O)COc1ccccc1 (stereo not shown) | 0.0097
Cc1ccc(CNC(=O)CCC2CCCN(Cc3ccc4cccc(F)c4n3)C2)o1 (stereo not shown) | -14.1
CCCCCC(=O)Nc1cc(N(C)C)nc2ccccc12 | -77.9
CCCC(=O)Nc1nnc(S(=O)(=O)N(CC)c2ccccc2)s1 | 12.7
Clc1ccc2c(c1)C(c1cccs1)=NNC(c1cccnc1)=N2 | -9.42
Cc1ccc(-n2ccc(=O)c(C(=O)O)n2)cc1 | 7.35
COc1cc2nc(CN3CCN(C(c4ccccc4)c4ccccc4)CC3)[nH]c(=O)c2cc1OC | 8.85
O=C(NC(=S)NNC(=O)c1ccccc1[N+](=O)[O-])c1ccccc1 | 10.5
CC(C)NC(=O)NC(=O)COC(=O)C1(C)CC1(Cl)Cl (stereo not shown) | -0.0575
O=C(/N=C1/c2ccccc2CN1c1ccccc1)Nc1ccccc1 | 2.86
COc1ccccc1NC(=O)CCSc1nnnn1C | 11.5
Cc1ccc(N2C(=O)N3[C@H](c4ccc(F)cc4)[C@@H]4C(=O)N(C5CCCCC5)C(=O)[C@@H]4[C@]3(C)C2=O)cc1 | 13.1
O=C(CCc1nc(-c2ccccc2)no1)NCc1ccco1 | 4.59
CCCOc1ccc(C(=O)N(Cc2cccs2)C2CCS(=O)(=O)C2)cc1 (stereo not shown) | 9.51
COc1cccc(C(=O)OCC(=O)NC(C)CCc2ccccc2)c1O (stereo not shown) | 13.8
COc1ccc(NC(=O)CN2C(=O)NC(C)(C3CCCCC3)C2=O)c(OC)c1 (stereo not shown) | -3.85
Br.CN1CCc2cc(O)c(O)cc2C(c2ccccc2)C1 (stereo not shown) | 2.53
CC(C)(C)OC(=O)N1CCC(c2c(C(=O)O)cnn2-c2ccc(Cl)cc2)CC1 | 6.14
Cc1ccsc1/C=N/NC(=O)c1ccc2nc[nH]c2c1 | -0.669
C/C(N)=C(/C#N)C(=O)CSc1nn(-c2ccc(Cl)cc2)c(=S)s1 | 13.5
Cc1ccc(C)n1NC(=O)c1ccco1 | 14.4

SMILES | hERG current change (%, negative = inhibition) at 1uM [%]
COC(=O)c1cc(-c2ccc(OC)c(OC)c2)on1 | 4.97
CN1CCN(c2cc(-c3ccccc3)nc3cc(-c4ccc(F)cc4)nn23)CC1 | -4.24
O=C(NCc1ccc(-c2nc3ccccc3s2)cc1)c1ccco1 | 5.76
CCCc1cc(=O)[nH]c(SC(C)C(=O)N2c3ccccc3CC2C)n1 (stereo not shown) | 7.54
Cc1ccc(C)c(S(=O)(=O)N2CCN(c3nc(-c4cccnc4)nc4ccccc34)CC2)c1 | 5.94
CC(=O)NCCC(=O)Nc1cc(S(=O)(=O)N2CCCCC2)ccc1N1CCN(C)CC1 | 9.37
CC1CCN(C(=O)C2CCN(S(=O)(=O)c3cccc4cccnc34)CC2)CC1 | 8.67
Cc1ccccc1Nc1nc(Nc2ccccc2C)nc(SC2=NCCS2)n1 | -6.09
Cc1ccc(-c2csc3ncn(/N=C/N(C)C)c(=O)c23)o1 | 14.9
Cc1cc(N2CC(C(=O)O)CC2=O)ccc1Br (stereo not shown) | 12
Cc1cc(Nc2ccccc2)n(CCO)n1 | 2.49
COc1cc(CNCc2ccccc2Cl)ccc1OCC(=O)NC1CCCCC1 | 5.77
CC(=O)N1CCC(C(=O)NCCOc2cccc(C)c2)CC1 | 13.5
Cc1c(O)c(CN(C)C)cc2c1oc(=O)c1ccccc12 | -1.4
FC(F)(F)c1ccc(/C=N/n2c(COc3ccccc3)n[nH]c2=S)cc1 | 17
COc1ccccc1N(C)S(=O)(=O)c1ccc(Cl)c(C(=O)OCc2c(C)noc2C)c1 | 13.1
CCn1c(C)c(C2=CCN(S(=O)(=O)c3ccccc3)CC2)c2ccccc21 | -2.92
COc1cc(/C=N/NC(=O)CC2C(=O)NN=C2C)ccc1O (stereo not shown) | 6.18
Nc1cc(-c2ccc(Cl)cc2)nn1S(=O)(=O)c1ccc(Cl)cc1 | 19.2
CCOC(=O)c1sc(NC(C)=O)cc1C | 13.3
Cc1cccc(C)c1NC(=O)C1(N(C(=O)c2ccccn2)c2ccc(O)cc2)CCCCC1 | -0.183
CC(=O)Nc1ccc(C(=O)COC(=O)C2CC3CCCC(C2)C3=O)cc1 (stereo not shown) | 19.3

SMILES | hERG current change (%, negative = inhibition) at 1uM [%]
Cn1nnnc1SCc1nc2ccccc2s1 | 7.62
COc1ccc(C(=O)N/N=C/c2cccc3cccnc23)cc1 | 8.12
COC(=O)CCCCCN1C(=O)/C(=C\c2ccncc2)SC1=S | 13.2
COc1ccc(CNC(=O)CCCn2nc(C)c3c(C)n(-c4ccccc4)nc3c2=O)cc1 | 12.3
O=C(CSc1nnc(-c2ccco2)n1CC1CCCO1)c1ccc(F)cc1 (stereo not shown) | 0.19
CCOc1ccc(NC(=O)CN(C)C(=O)c2nc3nc(C)cc(C)n3n2)cc1OCC | 16.7
Cc1ccccc1NC(=O)CSc1nc(N2CCCCC2)nc(N2CCCCC2)n1 | 5.79
COc1cccc2[nH]c3ccccc3c(=O)c12 | 13.5
COc1ccc(OCc2n(CC(=O)OC3CC(C)CCC3C(C)C)c3ccccc3[n+]2C)cc1.[Cl-] (stereo not shown) | -45.5
O=[N+]([O-])c1ccc(NC(=S)NCc2ccncc2)cc1 | 4.4
COC(=O)c1ccccc1NC(=O)C1CCN(C(=O)N2CCOc3ccccc32)CC1 | -15.7
CC1CC1C(=O)N(CCC1=CCCCC1)c1c(N)n(Cc2ccccc2)c(=O)[nH]c1=O (stereo not shown) | 14.9
O=C(CSc1ncccc1-c1nc2ccccc2[nH]1)NCc1ccco1 | -11.9
COc1cccc(NC(=O)CN(C)CC(=O)Nc2cccc(C(F)(F)F)c2)c1 | -6.17
Cc1ccc2oc(C(=O)Nc3nonc3C)c(C)c2c1 | 11.8
Cc1c(Cl)cccc1NC(=O)CSc1nc2ncc(Cl)cc2[nH]1 | 13.7
COc1cccc(CN2CC(C(=O)NCc3cnn(C)c3)CCC2=O)c1 (stereo not shown) | 10.4
Cc1ccc(/C=N/NC(=O)c2nnn(-c3nonc3N)c2-c2ccc3c(c2)OCO3)s1 | 15.2
COc1ccc(N2CCN(c3ccc(NC(=O)NN)cc3)CC2)cc1 | 11.7
COc1ccccc1C(=O)Nc1sc2c(c1C(N)=O)CCCC2 | 15.9
COC(=O)c1cc(COC(=O)CNC(=O)c2cccc(C)c2)oc1C | 1.99
Cc1cc(C)n(-c2cc(N3CCN(C(=O)c4cccc(Br)c4)CC3)ccc2[N+](=O)[O-])n1 | -12

SMILES | hERG current change (%, negative = inhibition) at 1uM [%]
C=C1CCC[C@]2(C)C[C@H]3OC(=O)C(CNC(CC)CO)[C@H]3CC12 (stereo partly shown) | 7.57
CC(C)(C)C(=O)Nc1ccc(-c2nc3ccccc3c(=O)o2)cc1 | 8.39
C/C=C/C=C\C(=O)Nc1cccc(C2=NOC3(C2)C[C@@H](C(N)=O)N(C(=O)c2cc([N+](=O)[O-])cc([N+](=O)[O-])c2)C3)c1 (stereo partly shown) | 3.33
CC1(C)CC(NC(=O)c2coc(=O)c(Br)c2)CC(C)(C)N1 | 5.88
Cc1nn(Cc2ccc(Cl)cc2Cl)c(C)c1NC(=O)CCl | -13.9
Cn1c(NCC(O)CO)nc2c1c(=O)n(Cc1ccc(Cl)c(Cl)c1)c(=O)n2C (stereo not shown) | 0.157
O=C(CN(C(=O)c1csnn1)c1cccc(C(F)(F)F)c1)NCc1ccc(F)cc1 | 10.2
COC1=C(N2CCOCC2)C(=O)c2ccccc2C1=O | 12.4
O=[N+]([O-])c1cccnc1Oc1ccc(F)cc1F | 4.35
O=C(NCC1CCCO1)c1ccc(Cl)c(S(=O)(=O)Nc2ccccc2)c1 (stereo not shown) | 16.5
COc1ccc(OC)c(S(=O)(=O)n2c([N+](=O)[O-])cnc2C)c1 | 13.5
CCOC(=O)CCc1c(C)c2ccc(OC3CCCCC3=O)c(C)c2oc1=O (stereo not shown) | 7.51
Cc1cc2c(cc1S(=O)(=O)Nc1ccc(OC(F)(F)F)cc1)OCC(=O)N2 | 1.61
N=c1oc2ccccc2cc1C(=O)NCc1ccccc1 | 8.6
CC1Cc2ccccc2N1C(=O)CSc1nccc(=O)[nH]1 (stereo not shown) | 3.36
COc1ccc(C(=O)N(CCc2ccccc2)Cc2ccccc2)c(OC)n1 | 8.4
CC(C)Oc1cccc(OCCN2C(=O)c3ccccc3C2=O)c1 | 7.22
CC(Sc1nnc(-c2cccs2)n1N)C(=O)NCC1CCCO1 (stereo not shown) | 11.7
O=C(O)C1=C(OCc2ccc(F)c(F)c2)C(=O)NCC1 | 13.4
O=C(O/N=C\c1ccc(N2CCCCC2)c([N+](=O)[O-])c1)c1ccc(Cl)cc1Cl | 9.28
COc1ccc(C(=O)N/C(=C\c2ccco2)C(=O)NCc2ccco2)cc1 | 7.82
CC(=O)Nc1ccc(CNC(=O)C[N+]2(C)CCOCC2)cc1.[Cl-] | 14.8
